According to the supplement of paper PMC3724861:
The list shows a part of the results.

tested on: T1, Caupolican (Caup) homeodomain DNA-binding domain; assay: PBM E-score (8-mer, recovered from the published 9-mer minima) (E-score (dimensionless, -0.5 to 0.5)); Drosophila protein; higher = stronger relative binding preference, active = 0.31 or more
T1 sequence: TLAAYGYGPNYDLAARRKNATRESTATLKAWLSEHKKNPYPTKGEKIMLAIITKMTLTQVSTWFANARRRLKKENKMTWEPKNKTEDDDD
Method: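 Protein binding microarray (PBM): in vitro transcribed/translated Caupolican (Caup) homeodomain DNA-binding domain (residues 214-303) applied at 100 nM to a universal 8-mer PBM array (Agilent AMADID 015681). The 8-mer enrichment score (E-score, range -0.5 to 0.5) was computed, and each 9-mer score is the minimum E-score of its two constituent 8-mers. The E-score is the same for a 9-mer and its reverse complement; 0.31 is the stated binding threshold.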

PBM E-score, ≥ -0.0517:
ACGTCCCT

PBM E-score, ≥ 0.0809:
ATCTAGCA

PBM E-score, ≥ 0.0585:
ACCACAGA

PBM E-score, ≥ 0.279:
AAGACACG

PBM E-score, active:
ACATACAA 0.386
ACGACAAC 0.339
ACATGTAA 0.468
GTTAAACA 0.339
ATACATCA 0.334
ATGTTCAA 0.327

PBM E-score, ≥ 0.235:
TACAATCA

PBM E-score, ≥ 0.122:
ATATCTGC

PBM E-score, ≥ 0.0381:
TGGTCACA

PBM E-score, ≥ 0.0513:
CGTGCTAA

PBM E-score, ≥ -0.117:
AGCCCCGC

PBM E-score, ≥ -0.0006:
TCTTCGCA

PBM E-score, inactive:
CTCCCAAG -0.124
ATTAGCCC -0.115
ATGCCTGA 0.0206
TCGCATAA 0.0741
GTGATACA 0.207
AGATTGCC -0.0637
CATCCGTC 0.0132
CATACAAA 0.234
AACGAGAC 0.104
AAAATTAG 0.0162
AGGTGCTG -0.0945
AAACCCTG 0.0253
TACCCCAA -0.0804
CACTCGGG -0.108
CCCCAGCG -0.312
AAAGGGTT -0.0572
CGAACGTC -0.121
AAGTTTAA 0.0876
GACCTGCA -0.0631
CTCACGTA 0.00264
AATACAGT 0.127
CATAAGGC -0.0453
GACACGGC 0.247
GGAAGCAA 0.0105
ATTGCGCG 0.00241
GAAACATC 0.166
TCGCAGCA -0.0424
CACGCCCG -0.0794
CCAGATTC -0.16
ATGTGGAG -0.0432
GAATGCCC -0.141
ACCTAATC 0.129
AAAGATAT 0.0965
TAACTGTA 0.162
GCCACGAC -0.0328
AGTTACGC -0.0237
AGTAGAGG -0.0685
AGCGAGAG -0.0662
ATAGACGG -0.0463
CTGACCAG -0.125
GCACTGTA 0.00665
TAGTATCA 0.181
AGGTGATG 0.0743
GAAAGGAA -0.127
CTACATCA 0.253
CTCTGTTA 0.107
GTGTGGAA 0.0328
CCATGGAA 0.116
AATGACCT 0.0763
ATTGGAAC 0.133
AACAGCCA 0.0697
ACCTCGTG 0.0342
CTCTAATA 0.129
CCTTTACA 0.182
CCACGATA 0.0391
AAGGATAC 0.0741
CGAGTTCA -0.00371
GGGCCTAA -0.158
ATGTCGTC 0.28
ACTTCGCC -0.108
ATTATGTG 0.197
ACTTATTG 0.0572
AAGGGTTC -0.134
AAACTGAA 0.0922
ACGACCGG 0.00084
ATGAAAAG 0.00542
CTCTAGAC -0.0611
ACATACTA 0.266
AGCCGCAT -0.0925
ACCGCGGG -0.115
CTAAAGAA 0.0106
AACCACCA 0.0384
AACGCTTC 0.00522
AGAGCCAG -0.123
AAATCGTC 0.0174
ATATGACG 0.109
CATCTCGG -0.106
ACTGCTTA -0.0417
CACCATTA 0.0852
GGCGCTTA -0.249
ATATTAAT 0.197
CCTTGATA 0.105
ATTGCACC 0.08
TAAATTAA 0.124
AGCGCTTA -0.155
ATGTGAAC 0.184
CTCAAACA 0.237
TAGGCCCA -0.144
ACTGCCCG -0.0447
GTTGACTA 0.0861
AACTCTCT -0.0596
GCCTTGGA -0.14
AGAGGCTG -0.0654
AAAGTAGG 0.0723
ACGATAAA 0.0409
ACAATACC 0.195
GGGGTACA 0.0877
CCTCAGAC -0.0774
CCAAATCG 0.0398
AACAGGTG 0.223
GCAATTCC -0.0753
ACCACATC 0.16
AACTTTGG 0.05
ATGTTGAG 0.132
CTCTCGTA -0.00442
ACCACGTC 0.107
AGCAGTAC 0.0873
CTGACCAA -0.00826
AGCAACCT -0.0294
GGGGAACC -0.151
ACCTGACG -0.123
ACCGGGTG -0.178
ACCGTGAT 0.0802
GCACCCCC -0.2
CGCTAATA 0.0861
ATTGACCA 0.0614
TCGCAACA 0.0932
GATTAGCA 0.0136
CTGCCTCA -0.0856
GATGCCCC -0.249
CTGGGGCC -0.313
AAACAAGT 0.302
ACTACCGG -0.0471
GCAATGGA -0.0225
ATACTCGC -0.0116
CTAGAATA 0.104
GACACTAC 0.148
CGCGTAGC -0.153
CCCTACGG -0.2
GATCACGA 0.0695
AATTCGCA 0.0279
CTAACACC 0.107
CGAGCTCG -0.14
GGCGTAGA -0.0914
GATGCCGC -0.157
GGATCCAC -0.157
CAGAGGTA -0.00113
GGGCTCAA -0.142
GTCTTCAA 0.0602
AAACGGCA -0.00163
CAGACATA 0.175
CCGCGGAG -0.184
CCTTCAGC -0.194
TCCAAGGA -0.0885
AGTCTAGA -0.0275
ATTGAGTG 0.0339
GATCAGGC -0.0491
ACGTCAAC 0.106
CTTCAGTC -0.0898
AACGAAGG -0.0947
TACTCCAA 0.0614
GTCGCAGA -0.055
AATCTTGT 0.298
ACCCTCCC -0.143
CCATTTGA -0.0116
GATCGACA 0.171
AAGAGATA 0.0778
ATTCGTAC 0.172
AAATGTAG 0.0799
GATGTTCC 0.281
ACAGCTCC -0.0353
TATTGCCA 0.0268
GCGCTGGA -0.247
CGAAGTCA 0.00841
ATTCGCTC -0.0134
GCTAATCA 0.0916
AAGATGGA 0.012
AGCGTTGG -0.059
GCTGCCCA -0.2
ATCGCAAA 0.0617
GAGCACTA -0.0464
GAGGTATA 0.0497
TATATGAA 0.186
AGTATCTG 0.00127
ACTGTTGA 0.0669
ATAGTAGA 0.109
ACGATGCA 0.0351
AGATTCCA 0.0537
AGTCCGTC -0.0684
AAGTTCCT 0.0323
AGTACTAA 0.232
CCGCACGG -0.183
CAGGTTGG -0.0285
ACAATGCA 0.223
CCGCCTTA -0.1
CGAAAGCC -0.225
CGTGGTTA 0.112
CAGTCTGG -0.174
ATACGGGC -0.0901
TGAACAAA 0.131
AGGATATG 0.116
ATTCTATG 0.155
ATACCGAA 0.0694
ACGAGCCC -0.153
GCAGAATA -0.0476
CAACTCAC 0.0566
CCTTCAAG -0.132
AAGGGTAG 0.0343
GCTAGTTA 0.115
CATCCAAG -0.0151
CCCCTGAA -0.0907
ATGTATGG 0.157
ATCTATTA 0.123
AGACCCCC -0.265
CTTTGCCC -0.142
AGCGCGGA -0.153
ACTTGCAC 0.148

PBM E-score, ≥ -0.0302:
AAGTGGCA

PBM E-score, ≥ 0.243:
CGACAATA

PBM E-score, ≥ 0.18:
ATCATTTA

PBM E-score, ≥ 0.0576:
ACTAGCGA
